Experimental data taken from publication PMC4336329 (PLoS ONE, 2015).
The campaign covered roughly 310,000 compounds. About 2,200 (0.71%) showed an effect of 50% or more. The effect is printed as a negative number. Some of the results follow.

Each compound was assayed against human ether-à-go-go-related gene (hERG) potassium channel (human, UniProt Q12809) (assay: primary screen, population patch clamp on CHO cells stably expressing hERG).
human ether-à-go-go-related gene (hERG) potassium channel, sequence (Q12809 whole entry, looked up): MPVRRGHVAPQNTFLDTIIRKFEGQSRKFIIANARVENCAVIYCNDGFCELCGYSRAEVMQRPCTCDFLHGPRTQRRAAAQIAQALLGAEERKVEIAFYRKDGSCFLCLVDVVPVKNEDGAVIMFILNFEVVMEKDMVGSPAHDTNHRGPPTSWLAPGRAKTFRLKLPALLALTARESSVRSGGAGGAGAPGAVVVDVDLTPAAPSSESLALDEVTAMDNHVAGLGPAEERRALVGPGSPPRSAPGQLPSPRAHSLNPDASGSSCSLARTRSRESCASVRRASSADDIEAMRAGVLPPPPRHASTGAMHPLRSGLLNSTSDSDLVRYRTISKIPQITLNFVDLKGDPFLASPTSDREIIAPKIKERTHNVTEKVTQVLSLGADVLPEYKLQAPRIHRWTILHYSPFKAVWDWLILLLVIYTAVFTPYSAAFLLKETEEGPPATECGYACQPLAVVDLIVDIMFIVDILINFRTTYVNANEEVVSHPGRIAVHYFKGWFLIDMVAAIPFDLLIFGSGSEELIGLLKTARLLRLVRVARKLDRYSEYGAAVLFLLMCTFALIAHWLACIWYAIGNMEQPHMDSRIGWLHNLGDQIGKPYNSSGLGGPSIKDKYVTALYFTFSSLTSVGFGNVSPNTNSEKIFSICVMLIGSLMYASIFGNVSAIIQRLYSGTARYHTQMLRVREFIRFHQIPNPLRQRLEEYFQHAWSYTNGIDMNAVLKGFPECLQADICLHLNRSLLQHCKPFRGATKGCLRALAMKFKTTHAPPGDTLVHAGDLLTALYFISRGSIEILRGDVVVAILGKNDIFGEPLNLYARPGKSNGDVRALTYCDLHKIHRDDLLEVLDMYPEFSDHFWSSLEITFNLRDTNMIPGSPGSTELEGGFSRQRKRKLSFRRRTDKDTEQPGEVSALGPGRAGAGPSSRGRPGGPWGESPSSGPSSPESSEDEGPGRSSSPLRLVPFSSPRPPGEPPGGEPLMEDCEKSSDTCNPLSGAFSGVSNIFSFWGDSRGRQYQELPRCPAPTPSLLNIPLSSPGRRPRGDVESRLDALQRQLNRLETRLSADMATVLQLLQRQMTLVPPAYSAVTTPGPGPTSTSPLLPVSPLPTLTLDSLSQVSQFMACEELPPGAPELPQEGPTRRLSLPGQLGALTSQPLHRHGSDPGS

First: O=C(CNS(=O)(=O)c1cccs1)N1CCN(c2ccccn2)CC1
Second: O=C(c1cccs1)N1CCC(Cc2ccccc2)CC1
The “hERG current change (%, negative = inhibition) at 1uM” value of the first is higher: 4.54% for the first, 3.05% for the second.

First: CCCCn1c(O)c(C(C)=NCCc2ccccc2)c(=O)[nH]c1=O
Second: CCCCn1c(N)c(N(CC(C)C)C(=O)CCCc2nc3ccccc3c(=O)[nH]2)c(=O)[nH]c1=O
The “hERG current change (%, negative = inhibition) at 1uM” value of the first is lower: 7.03% for the first, 15.4% for the second.

Compared with `CCN(CC)S(=O)(=O)c1ccc(OC)c(NC(=O)C2CC(=O)N(c3ccc(C)cc3)C2)c1` (stereo not shown), `COc1ccc(S(=O)(=O)N2CCOCC2)cc1NC(=O)Cc1sc(C)nc1-c1ccc(F)cc1` is higher in “hERG current change (%, negative = inhibition) at 1uM” value: -5.45% for the first, 18.5% for the second.

First: CN(C)CC/C=C1/c2cc(F)ccc2CSc2ccc(F)cc21
Second: COc1cc(/C=C/C(=O)c2ccc(F)cc2)cc(OC)c1OC
The “hERG current change (%, negative = inhibition) at 1uM” value of the first is lower: -2.43% for the first, 8.39% for the second.

First: Cc1ccc(NC(=O)COC(=O)CCc2c[nH]c3ccccc23)cc1[N+](=O)[O-]
Second: COc1ccc(C(C)(C)C)cc1NC(=O)CNc1cccc2ccccc12
The “hERG current change (%, negative = inhibition) at 1uM” value of the first is lower: 0.229% for the first, 5.71% for the second.

Going from `CCOc1ccc(C(=O)NC(=S)NC2CCCC2)cc1[N+](=O)[O-]` to `O=C(NC1CCCCC1)c1ccc(S(=O)(=O)NCc2cccnc2)cc1`, the “hERG current change (%, negative = inhibition) at 1uM” value falls from 14.2% to 3.18%.

Going from `CCN(CC)CC(=O)Nc1cc(N(C)C)nc2ccccc12.O=C(O)C(=O)O` to `CCc1cc(C(=O)Cc2nc3ccccc3[nH]2)c(O)cc1O`, the “hERG current change (%, negative = inhibition) at 1uM” value rises from 6.57% to 8.07%.

Going from `CCCC(C)NC1=NCCCCC1` (stereo not shown) to `CC1(C)C2CCC1(C)C(NC1=NCCC1)C2.Cl` (stereo not shown), the “hERG current change (%, negative = inhibition) at 1uM” value falls from 2.11% to -2.04%.

Compared with `N=C1/C(=C/c2ccc(Br)o2)C(=O)N=C2SC(CC(=O)N3CCCC3)=NN12`, `CCC(C(=O)N1CCCCCC1)n1nc(C)n2c(cc3occc32)c1=O` (stereo not shown) is lower in “hERG current change (%, negative = inhibition) at 1uM” value: 12.1% for the first, 12% for the second.

Compared with `COC(=O)c1c(NC(=O)C2C3C=CC(CC3)C2C(=O)O)sc(C)c1C` (stereo not shown), `COc1cc(CNC2CCCCC2OC)cc(OC)c1.O=C(O)C(=O)O` (stereo not shown) is higher in “hERG current change (%, negative = inhibition) at 1uM” value: 4.01% for the first, 10.6% for the second.

First: CCN1CCN(c2cc(N3CCCC3)c([N+](=O)[O-])cc2F)CC1
Second: CC(CCN1CCN(c2ccc(F)cc2)CC1)c1ccccc1 (stereo not shown)
The “hERG current change (%, negative = inhibition) at 1uM” value of the first is higher: 1.15% for the first, -32.8% for the second.

First: O=C(NCCS(=O)(=O)N1CCCCC1)c1ccc2c(c1)OCO2
Second: CC(c1ccco1)N(C(=O)c1ccc(S(=O)(=O)N2CCCCC2)cc1)c1ccccn1 (stereo not shown)
The “hERG current change (%, negative = inhibition) at 1uM” value of the first is lower: -1.82% for the first, 11.6% for the second.

Compared with `CCNC(=O)c1ccc(CSc2nc3ccccc3s2)cc1`, `Cc1ccc(C(NC(=O)c2ccccc2)C(Cl)Cl)cc1` (stereo not shown) is lower in “hERG current change (%, negative = inhibition) at 1uM” value: 11.4% for the first, 10.5% for the second.

First: CCCn1c(-c2ccccc2)cc(SC)c(C#N)c1=O
Second: COc1ccc(C2C(C#N)=C(C)NC3=C2C(=O)c2ccccc23)cc1 (stereo not shown)
The “hERG current change (%, negative = inhibition) at 1uM” value of the first is lower: 8.36% for the first, 14.1% for the second.

Going from `CC(C)=CCc1c(O)c(CC=C(C)C)c2occ(-c3ccc(O)cc3)c(=O)c2c1O` to `COc1ccc(Cl)cc1C(=O)Nn1c(C)nc2ccccc2c1=O`, the “hERG current change (%, negative = inhibition) at 1uM” value rises from -2.28% to 15.8%.

Compared with `COc1ccc(CCNS(=O)(=O)c2ccc3c(c2)OCCO3)cc1`, `O=C(Cn1cnc2c(nnn2Cc2ccccc2)c1=O)Nc1ccc2c(c1)OCCO2` is lower in “hERG current change (%, negative = inhibition) at 1uM” value: 5.36% for the first, -7.45% for the second.

Going from `COc1ccc(CNC(=O)CCC(=O)N2CCN(C(C)=O)CC2)cc1` to `COc1ccc(CNC(=O)C2CCCN(C(=O)Nc3ccc(OC)cc3)C2)cc1` (stereo not shown), the “hERG current change (%, negative = inhibition) at 1uM” value falls from 9.58% to 1.82%.

First: CCc1ccc2c(c1)C1(SC(NC(C)=O)=NN1C(C)=O)C(=O)N2CC (stereo not shown)
Second: CCN(c1ccc(OC)cc1)S(=O)(=O)c1nnc(NC(=O)c2ccc(C)cc2)s1
The “hERG current change (%, negative = inhibition) at 1uM” value of the first is higher: 9.82% for the first, 8.32% for the second.

Compared with `COC(=O)c1ccc(Cn2nnc3c(=O)[nH]c(C4CCN(S(=O)(=O)c5cc(C)ccc5C)CC4)nc32)cc1`, `COC(=O)c1ccc(CNC(=O)c2ccc3c(c2)S(=O)(=O)N=C2CCCCCN23)cc1` is lower in “hERG current change (%, negative = inhibition) at 1uM” value: 11.5% for the first, 3.83% for the second.

First: O=C(COC(=O)c1ccc(Br)c(S(=O)(=O)N2CCOCC2)c1)NCC1CCCO1 (stereo not shown)
Second: CS(=O)(=O)c1ccc(Cl)c(NC(=O)c2cc(=O)[nH]c3ccc(S(=O)(=O)N4CCOCC4)cc23)c1
The “hERG current change (%, negative = inhibition) at 1uM” value of the first is lower: 1.85% for the first, 9.61% for the second.

Compared with `Cc1cccc(Oc2nc(-c3ccncc3)nc3ccccc23)c1`, `COc1ccc(OCC(=O)Nc2cccc(-c3nc4ccccc4o3)c2)cc1` is lower in “hERG current change (%, negative = inhibition) at 1uM” value: 8.12% for the first, -1.56% for the second.

Going from `C=CCc1cc(OC)ccc1OCCN1CC(C)OC(C)C1.O=C(O)C(=O)O` (stereo not shown) to `Cc1ccsc1/C=C1\SC(N2CC(C)OC(C)C2)=NC1=O` (stereo not shown), the “hERG current change (%, negative = inhibition) at 1uM” value rises from 8.68% to 10.4%.

Going from `CCOC(=O)N1CCN(CCC(=O)c2ccc(Br)cc2)CC1.Cl` to `C=CCNC(=S)N1CCC(C(=O)c2ccc(Cl)cc2)CC1`, the “hERG current change (%, negative = inhibition) at 1uM” value rises from -23.1% to 1.47%.

Going from `O=C(Nc1ccc(-c2ccc3nncn3n2)cc1)C1CCCCC1` to `Cc1nc(-c2ccc(NC(=O)C3CCCCC3)cc2)cs1`, the “hERG current change (%, negative = inhibition) at 1uM” value rises from 3.48% to 3.52%.

Going from `O=C(c1cccc(C(=O)N2CCc3ccccc32)n1)N1CCc2ccccc21` to `Cc1cc(C)cc(C(=O)Nc2ccc(N3CCN(C(=O)c4ccco4)CC3)cc2)c1`, the “hERG current change (%, negative = inhibition) at 1uM” value rises from 5.93% to 13%.

Going from `Cc1cc(C)nc(/N=C2\NC(=O)CC(C(=O)O)N2c2cccc(Cl)c2)n1` (stereo not shown) to `Cc1ccc(N2C(=O)C3CCCN3C2=S)cc1Cl` (stereo not shown), the “hERG current change (%, negative = inhibition) at 1uM” value falls from 13.4% to 3.78%.

First: Cc1noc(C)c1S(=O)(=O)N1CCC(C(=O)NCCCN2CC(C)CC(C)C2)CC1 (stereo not shown)
Second: COc1cc2c(cc1OC)CN(C(=O)CN1CCN(S(=O)(=O)c3ccc(C)c(C)c3)CC1)CC2
The “hERG current change (%, negative = inhibition) at 1uM” value of the first is higher: 12.2% for the first, 7.13% for the second.

Compared with `Cc1ccc(C(=O)N/C(=C\c2ccco2)C(=O)NCc2cccnc2)cc1`, `Cc1ccc(N=N/C(=C\O)C(=O)c2ccc(Cl)cc2)cc1` is higher in “hERG current change (%, negative = inhibition) at 1uM” value: -36.2% for the first, 10.6% for the second.

Going from `CCOc1ccc(N(CC(=O)Nc2ccc(CC)cc2)S(=O)(=O)c2c(C)[nH]c(=O)[nH]c2=O)cc1` to `CN(C)S(=O)(=O)c1ccc(NC(=O)c2ccncc2)cc1`, the “hERG current change (%, negative = inhibition) at 1uM” value falls from 12.6% to 9.09%.

Compared with `CN(C(=O)COC(=O)c1cccc(F)c1)c1ccccc1`, `COC(=O)CN(c1ccccc1F)S(=O)(=O)c1ccc(C)cc1` is higher in “hERG current change (%, negative = inhibition) at 1uM” value: 12% for the first, 12.1% for the second.

First: O=C(O)CCn1c(=O)n(CCC(=O)O)c(=O)n(CCC(=O)O)c1=O
Second: Cc1nc2scc(-c3cccs3)c2c(=O)n1CC(=O)O
The “hERG current change (%, negative = inhibition) at 1uM” value of the first is higher: 14.3% for the first, 2.35% for the second.

First: CC(CC(=O)Nc1ccc(-c2ccno2)cc1)n1cccn1 (stereo not shown)
Second: CC(=O)c1ccc(NC(=O)c2cnn3c(C(F)F)cc(C4CC4)nc23)cc1
The “hERG current change (%, negative = inhibition) at 1uM” value of the first is lower: -2.93% for the first, 14% for the second.

Compared with `Cc1c(Br)c([N+](=O)[O-])nn1CC(=O)NCCc1ccc(Cl)cc1`, `NS(=O)(=O)c1ccc(CCNC(=O)c2ccccc2-c2ccccc2)cc1` is higher in “hERG current change (%, negative = inhibition) at 1uM” value: -1.75% for the first, 5.72% for the second.

Compared with `Cc1sc2nc(SCC(N)=O)n(C)c(=O)c2c1C`, `Cc1c(C(=O)N2CCCCCC2)c(S(=O)(=O)Nc2ccc(F)cc2)c(C)n1C` is lower in “hERG current change (%, negative = inhibition) at 1uM” value: 13.9% for the first, 11.6% for the second.

Compared with `Cc1cccnc1NC(=O)CN1C(=O)c2ccccc2S1(=O)=O`, `Cc1ccccc1/C=C\c1nc2ccccc2c(=O)[nH]1` is higher in “hERG current change (%, negative = inhibition) at 1uM” value: 13% for the first, 13.5% for the second.

First: O=[N+]([O-])/C=C1/NCCN1Cc1ccc(Cl)nc1
Second: Cn1ccnc1C(OC(=O)c1ccc(Cl)cc1)C(F)(F)F (stereo not shown)
The “hERG current change (%, negative = inhibition) at 1uM” value of the first is lower: 7.91% for the first, 12.7% for the second.

Compared with `CC(CNC(=O)C(C)C)NC(=O)C(C)C` (stereo not shown), `COc1ccc(C(NC(C)=O)c2cc(Cl)c3cccnc3c2O)cc1OC` (stereo not shown) is lower in “hERG current change (%, negative = inhibition) at 1uM” value: 11.5% for the first, 9% for the second.

First: COc1ccc(C(C(=O)NC2CCCC2)N(Cc2cccnc2)C(=O)c2snc(C(N)=O)c2N)cc1 (stereo not shown)
Second: O=C1CCCN1c1ccc(C(=O)N(Cc2nnc(-c3ccc(Cl)cc3)o2)C2CC2)cc1
The “hERG current change (%, negative = inhibition) at 1uM” value of the first is higher: 10.9% for the first, 3.39% for the second.

Going from `Cc1cc(C)c(C)c(S(=O)(=O)NCc2ccncc2)c1C` to `CCOC(=O)c1c(C)[nH]c(N=Nc2cccc(OC)c2)c1C`, the “hERG current change (%, negative = inhibition) at 1uM” value falls from 14.7% to 6.77%.

Going from `COc1cc(C(=O)Nc2ccc(N3CCN(C(=O)c4ccc(C)cc4)CC3)cc2)cc(OC)c1OC` to `CCN(CC)CCN(C(=O)c1ccc(S(=O)(=O)N2CCCC2)cc1)c1nc2cc(C)cc(C)c2s1.Cl`, the “hERG current change (%, negative = inhibition) at 1uM” value falls from 3.84% to -5.24%.

First: Cc1c(/C(O)=C2/C(=O)C(=O)N(CCN(C)C)C2c2ccc(C(C)C)cc2)cnn1-c1ccccc1 (stereo not shown)
Second: CC(=O)Nc1ccc(S(=O)(=O)N/N=C/c2ccc(C)o2)cc1
The “hERG current change (%, negative = inhibition) at 1uM” value of the first is lower: 13.4% for the first, 17.2% for the second.

First: CC(C)(C)OC(=O)NCCCCCc1nnc(SCc2ccccc2)o1
Second: O=C(O)c1nc(Cl)c(Cl)c(N/N=C/c2ccccc2C(F)(F)F)c1Cl
The “hERG current change (%, negative = inhibition) at 1uM” value of the first is lower: 9.3% for the first, 11.8% for the second.

Compared with `NC(=O)NC1NC(=O)NC1=O` (stereo not shown), `COC(=O)c1ccccc1NC(=S)N1CCN(C2CCCCC2)CC1` is lower in “hERG current change (%, negative = inhibition) at 1uM” value: 16.6% for the first, 5.54% for the second.

Going from `O=C(Nn1cnnc1)c1ccncc1` to `C=CCN1CC(C)/C(=N\O)CC1C` (stereo not shown), the “hERG current change (%, negative = inhibition) at 1uM” value rises from -0.614% to 11.2%.
